Out of some 360,000 compounds screened, about 6,000 (1.7%) were called active. Inconclusive results, whose numbers are uncertain, are shown with a selection of clear calls. The call rests on the fitted dose curve; in most records, active means well fitted cell-killing curve with a large enough effect; inconclusive means small, poorly fitted or top-dose-only effect, or effect the other way; inactive means flat fitted curve, though single readings scatter. Potencies of inconclusive entries are left out as doubtful fits.
Test: qHTS for induction of synthetic lethality in tumor cells producing 2HG: qHTS for the HT-1080-NT fibrosarcoma cell line;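 further: NT is the 2HG producing partner of a matched IDH1 knockdown line; nearly all actives have a fitted effect of over 55% in size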;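 on activity, negative = less viability: 0% = DMSO-treated cells and -100% = media-only wells without cells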
Conditions: HT-1080-NT fibrosarcoma viability, CellTiter-Glo ATP luminescence, 48 h; activity, negative = less viability: at 46.1 µM (top of the series) unless noted
How it was run: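 Viability by CellTiter-Glo luminescence after 48 h compound exposure at 37C of HT-1080-NT cells (750/well, RPMI, 5% FBS). % activity scaled between DMSO wells and medium-only wells, then curve-fitted and categorized by curve class.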
Potency means the concentration at half of the fitted maximal effect; tags describe the fitted curve by direction and shape.

Structure (SMILES)	Potency	activity, negative = less viability
COc1ccc(N=C2C(=Nc3ccc(OC)cc3)N(c3ccc(N(C)C)cc3)C(=S)N2c2ccc(OC)cc2)cc1	inconclusive [cytotoxic, full curve]	
C/C(=N\NC(=S)NC1CCCCC1)c1ccc(OC(F)F)cc1OC(F)F	inconclusive [cytotoxic, single point]	
Cc1nn(-c2ccccc2)c(C)c1/C=N/NC(=O)c1cc(-c2ccc(Br)s2)[nH]n1	inconclusive [cytotoxic, full curve]	
CCOC(=O)c1cccc(NC(=O)C2CCN(S(=O)(=O)c3cccs3)CC2)c1	inconclusive [cytotoxic, single point]	
CC(C)(C)OC(=O)N1CC2(CCCCC2)CC1Cc1ccc(C(F)(F)F)cc1 (centres undefined)	inactive	
CCCCCCNc1c([N+](=O)[O-])c(=O)sc2ccccc12	inconclusive [cytotoxic, partial curve]	
CC1(c2nnnn2Cc2ccccc2)CCC(=O)N1CCc1ccc(O)cc1 (centres undefined)	inactive	
COC(=O)[C@]12CCCCC=C1N(Cc1ccc3c(c1)OCO3)C(=O)[C@H](CC(=O)NCCc1ccccc1OC)C2	inconclusive [cytotoxic, single point]	
CNC(=O)c1[nH]cnc1C(=O)N[C@@H](Cc1ccccc1)C(=O)OC(C)(C)C	inactive	
CN(c1cccc(NC(=O)CSc2ccc(Cl)cc2)c1)S(C)(=O)=O	inconclusive [cytotoxic, single point]	
Cc1ccc(C)c2sc(N3CCN(C(=O)c4ccc([N+](=O)[O-])o4)CC3)nc12	inconclusive [cytotoxic, full curve]	
CC(CCc1ccccc1)NC(=O)c1cccs1 (centres undefined)	inactive	
COc1ccc(CCNC(=O)Nc2nc(C(N)C3CCCCC3)cs2)cc1OC (centres undefined)	inconclusive [cytotoxic, single point]	
Cc1nc2sc3c(c2c2nnc(SCC(=O)NCc4ccco4)n12)CCCC3	inactive	
CCOC(=S)SCC(=O)Nc1nc(-c2ccc(Br)cc2)cs1	active: 7.31 µM	
O=C(Nc1cccc(O)c1)c1cccc(NC(=O)c2cccs2)c1	inconclusive [cytotoxic, single point]	
COc1ccc(C(N)c2csc(NC(=O)Nc3cccc(C(F)(F)F)c3)n2)cc1 (centres undefined)	active: 20.6 µM	
Cc1[nH]n(-c2ccc([N+](=O)[O-])cc2)c(=O)c1C=NCCN1CCN(C(=O)c2ccc(Br)cc2)CC1	inconclusive [cytotoxic, partial curve]	
O=C(Nc1ccc(N2CCCCC2)cc1)c1ccc([N+](=O)[O-])o1	active: 4.61 µM	
Cc1ccc(CN(Cc2cccnc2)C(=O)CN2C(=O)COc3ccccc32)o1	inactive	
Cc1cc(C(O)c2ncc(-c3cccc(F)c3)[nH]2)ccc1F (centres undefined)		inconclusive: 2.71%
COc1cccc(C2=CC(c3ccccc3)n3nnnc3N2)c1 (centres undefined)	active: 7.94 µM	

Structure (SMILES)	Potency	activity, negative = less viability
CCc1ccc2c(c1)C1(C(=O)N2)N2CCCC2C(C(=O)c2ccc3ccccc3c2)C12C(=O)Nc1ccccc12 (centres undefined)	active: 18.4 µM	
CC(C)(C)c1nn(-c2ccccc2)c2[nH]c(=O)c(CNc3ccc4c(c3)OCCO4)cc12	inconclusive [cytotoxic, single point]	
COc1cccc(C(C)NC(=O)Nc2cc(Cl)ccc2OC)c1 (centres undefined)	inconclusive [cytotoxic, single point]	
COc1ccc(OCC(=O)N2CCN(c3nnc(-c4ccc(C)cc4)c4ccccc34)CC2)cc1	inconclusive [cytotoxic, single point]	
CC(=O)Nc1cccc(Oc2cnc3ccccc3n2)c1	inactive	
N=c1oc2cc(O)ccc2cc1C(=O)Nc1ccc(Br)cc1	inconclusive [cytotoxic, full curve]	
COc1ccc(-c2cc(-c3cccs3)c(C#N)c(SCC(=O)NCc3ccco3)n2)cc1	active: 2.91 µM	
CCN(C(=O)COC(=O)/C(=C/c1ccccc1)n1nnnc1C)C1CCCCC1	inconclusive [cytotoxic, single point]	
O=C(Nc1ncc([N+](=O)[O-])s1)C1COc2ccccc2O1 (centres undefined)	inconclusive [cytotoxic, partial curve, poor fit]	
O=C(C1=C(O)C(=O)N(CCCN2CCOCC2)C1c1ccccn1)c1cc2ccccc2o1 (centres undefined)	inconclusive [rising, full curve, poor fit]	
COc1cc(OC)cc(-c2cc3ccc(OC)cc3cn2)c1	inconclusive [cytotoxic, single point]	
COc1ccc(Nc2cc(C)nc3ccc(OC)cc23)cc1	inconclusive [cytotoxic, single point]	
Cc1ccc(-c2nc(NCc3cccnc3)c3ccccc3n2)cc1	inactive	
CC(C)(C)S(=O)N1Cc2cc(C(=O)NCc3ccc4c(c3)OCO4)nc(-c3cccc(-c4cc5ccccc5o4)c3)c2[C@@H]1CCO (some centres undefined)	active: 23.1 µM	
Cc1cc(C)nc(Nc2nc(=O)c3ccccc3s2)n1	inactive	
CN(C)c1ccc(-c2ccc([C@H]3[C@@H]4C=CCC[C@@]4(C)C(=O)N3Cc3ccccc3)c(F)c2)cc1	inconclusive [cytotoxic, partial curve, poor fit]	
CCCC12CN3CCN(CC(C3)/C1=N\NC(=O)c1ccccc1Cl)C2		inconclusive: -4.82% [cytotoxic]
Cc1ccc(/C=C/C(=O)Nc2ccc([N+](=O)[O-])cc2)o1	inactive	
O=S(=O)(c1ccc(S(=O)(=O)N2CCN(C/C=C/c3ccccc3)CC2)cc1)N1CCCC1	inconclusive [cytotoxic, partial curve]	
Cc1ccc(NC(CNS(=O)(=O)c2ccc(Cl)cc2)c2ccccc2)cc1 (centres undefined)	inconclusive [cytotoxic, single point]	
CCN(CC)S(=O)(=O)c1ccc2c(c1)c(=O)c(C(=O)NCc1ccco1)cn2C	inactive	
Cc1ccc(-c2nnn(CC(=O)N(CC(=O)NC3CCCC3)c3ccc(F)c(Cl)c3)n2)o1	inconclusive [cytotoxic, single point]	
